Results: PubChem BioAssay AID624418 (National Center for Advancing Translational Sciences (NCATS), 2012)
Hit rate of the full screen: of about 410,000 compounds, about 530 (0.13%) were called active. The inconclusive results got no clear call from the source; some entries with a clear call stand among them for comparison. Calls follow the shape of the dose curve; as a rule, active = well fitted inhibition curve with a large enough effect; inconclusive = small, poorly fitted or top-dose-only effect, or another doubt; inactive = no such curve, though single readings can be large or run the other way. Potencies of inconclusive entries are doubtful fits and often do not repeat.
Potency is read from the fitted curve at half-maximal effect.

Test: qHTS of GLP-1 Receptor Inverse Agonists: Cytotox Screen
Details: HEK293 cAMP-luciferase reporter cells, luminescence, 24 h; series mostly up to 38.3 µM
Outline: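 A 23 nL compound transfer followed 12 hours of cell culture at 37 deg C; exposure then lasted 24 hr. Luciferase assay detection reagent was dispensed and plates read for luminescence after a 12 min room-temperature wait.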
In the case of CCC(=O)Nc1nc2ccccc2n1Cc1ccc(Cl)cc1, the Potency is reported as inconclusive: 12.6 µM [inhibitor, single point].
In the case of COc1ccc(CNC(=O)CCc2c(C)c3cc4c(C)coc4c(C)c3oc2=O)cc1OC, the Potency is reported as “inactive”.
In the case of CCCCN(C)CCNC(=O)c1cc2c(=O)n(C)c3ccccc3c2n1C, the Potency is reported as “inactive”.
For Cc1ccc(C)c(Sc2ccc(NC(=O)CCl)cc2)c1, the Potency was inconclusive: 25.1 µM [inhibitor, single point].
With CCN(Cc1nc2ccccc2c(=O)[nH]1)Cc1nc2ccsc2c(=O)[nH]1 the Potency was inconclusive: 2.51 µM [inhibitor, full curve, poor fit].
For C=CC(=O)Nc1cccc(CN2C(=O)N(c3cc(OC)cc(OC)c3)Cc3cnc(NCCCCN(CC)CC)nc32)c1, the Potency was inconclusive: 0.708 µM [inhibitor, full curve, poor fit].
In the case of CC(=O)NS(=O)(=O)c1ccc(N=c2ssc3c2-c2ccc(C)cc2NC3(C)C)cc1, the Potency is reported as inconclusive: 31.6 µM [inhibitor, single point].
In the case of Cc1ccccc1CN1C2=NCCN2c2ccccc21, the Potency is reported as inconclusive: 10 µM [inhibitor, partial curve, poor fit].
With COc1ccc(Cl)cc1C(Nc1cccnc1)c1ccc2cccnc2c1O (stereo not drawn) the Potency was “inactive”.
For CN1C(=O)c2ccccc2Sc2ccc(NC(=O)c3ccc(C(F)(F)F)cc3)cc21, the Potency was “inactive”.
In the case of CN(C)C=Nc1c(Br)cc(Br)c2nonc12, the Potency is reported as “inactive”.
In the case of O=C(c1cccs1)N1CCN(c2nc3ccccc3s2)CC1, the Potency is reported as inconclusive: 28.2 µM [inhibitor, single point].
With CCOc1ccc(NC(=O)c2cccs2)c([N+](=O)[O-])c1 the Potency was inconclusive: 11.2 µM [inhibitor, single point].
In the case of O=C(NCCc1ccccc1)C(=O)NCC1CCCN1S(=O)(=O)c1ccccc1 (stereo not drawn), the Potency is reported as inconclusive: 22.4 µM [inhibitor, single point].
For CCn1c2c(c(=O)n3ncc(C(=O)N4CCN(c5ccc(Cl)cc5)CC4)c13)CN(Cc1ccc(OC)cc1)CC2, the Potency was “inactive”.
In the case of CCC(Oc1ccc(F)cc1)C(=O)Nc1c(C(=O)c2ccc(C)cc2)oc2ccccc12 (stereo not drawn), the Potency is reported as “inactive”.
In the case of COc1cccc(CN2c3ccccc3-c3nc(SCC(=O)Nc4ccccc4Cl)ncc3S2(=O)=O)c1, the Potency is reported as “inactive”.
In the case of COc1ccc(NC(=S)N/N=C2\CC(C)(C)Oc3ccc(O)cc32)cc1, the Potency is reported as inconclusive: 3.16 µM [inhibitor, partial curve].
In the case of O=C1C(Nc2ccccc2)=C/C(=N/S(=O)(=O)c2cccs2)c2ccccc21, the Potency is reported as active: 4.47 µM.
In the case of COc1ccc2c(c1)sc(N)[n+]2Cc1cc(C)cc2cccnc12, the Potency is reported as inconclusive: 3.55 µM [inhibitor, partial curve, poor fit].
For Cc1ccc(S(=O)(=O)c2c(O)cc(C)c(NS(=O)(=O)c3ccc(Cl)cc3)c2C)cc1, the Potency was inconclusive: 15.8 µM [inhibitor, partial curve, poor fit].
In the case of OC(COc1ccc(CNCc2cccnc2)cc1)CN1CCc2ccccc2C1 (stereo not drawn), the Potency is reported as inconclusive: 14.1 µM [inhibitor, partial curve, poor fit].
With N/C(CCS(=O)(=O)c1ccc(Cl)cc1)=N\OC(=O)c1ccccc1Cl the Potency was inconclusive: 28.2 µM [inhibitor, single point].
In the case of CCC(C)[C@H](NC(=O)N1CC(=O)Nc2ccccc21)C(=O)Nc1ccccc1C (stereo partly drawn), the Potency is reported as inconclusive: 10 µM [inhibitor, partial curve, poor fit].
With Cc1nc([N+](=O)[O-])c(Sc2nc3ccccc3[nH]2)n1Cc1ccccc1 the Potency was inconclusive: 28.2 µM [inhibitor, single point].
For Cc1c(C)c2cc3c(c(C)c2oc1=O)OCN(CCc1ccc(F)cc1)C3, the Potency was “inactive”.
With Cc1cc(C)c2nc(Cl)c(CN(Cc3ccco3)C(=O)Nc3ccccc3C)cc2c1 the Potency was inconclusive: 3.16 µM [inhibitor, partial curve, poor fit].
With CCCOc1ccc(CNC(=S)Nc2ccccc2)cc1Cl the Potency was inconclusive: 31.6 µM [inhibitor, single point].
For O=C(/C=C/c1ccco1)NC(=S)NNC(=O)c1ccco1, the Potency was inconclusive: 22.4 µM [inhibitor, single point].
For COCCCn1c(C23CC4CC(CC(C4)C2)C3)n[nH]c1=S, the Potency was inconclusive: 10 µM [inhibitor, partial curve].
In the case of COc1ccc(NC(=O)CSc2nc(-c3cccc(C)c3)[nH]c2-c2ccccc2)cc1OC, the Potency is reported as inconclusive: 10 µM [inhibitor, single point].
With CC1CCCC(NC(=O)C2c3ccccc3C(=O)N2Cc2cccs2)C1C (stereo not drawn) the Potency was “inactive”.
With O=C(C[C@H]1C/C=C\CC[C@H](Cc2ccc(F)cc2)C(=O)O[C@@H](c2ccccc2)CNC1=O)N[C@@H](CO)Cc1ccccc1 the Potency was inconclusive: 10 µM [inhibitor, partial curve, poor fit].
For CC(=O)N1CCc2c(sc3c2c(=O)n(CCc2ccccc2)c(=O)n3Cc2ccccc2C)C1, the Potency was “inactive”.
In the case of O=C(CC1CC2CCC1C2)Nc1nc(-c2ccccn2)cs1 (stereo not drawn), the Potency is reported as inconclusive: 14.1 µM [inhibitor, single point].
For O=C(Nc1ccc(NC(=S)NC(=O)c2ccco2)cc1)c1ccc(Br)cc1, the Potency was inconclusive: 4.47 µM [inhibitor, full curve, poor fit].
In the case of CCCOc1ccc(/C=N/Nc2cccc([N+](=O)[O-])c2)c(O)c1, the Potency is reported as inconclusive: 28.2 µM [inhibitor, single point].
In the case of O=Cc1cnc(N2CCCCC2)s1, the Potency is reported as “inactive”.
In the case of COc1ccc(-c2nc3scc(CCNS(=O)(=O)c4ccc5c(c4)OCCO5)n3n2)cc1, the Potency is reported as “inactive”.
In the case of COc1ccc(C2CC3(CC(C)(C)NC(=O)N3)Oc3cc(O)ccc32)cc1 (stereo not drawn), the Potency is reported as inconclusive: 0.447 µM [inhibitor, full curve, poor fit].
For COc1ccc(NC(=O)c2cc([N+](=O)[O-])ccc2O)cc1, the Potency was “inactive”.
For Fc1cc(F)c2nc(Nc3nc4c(F)cccc4s3)sc2c1, the Potency was inconclusive: 31.6 µM [inhibitor, single point].
In the case of COc1cnc(-c2ccccn2)nc1Oc1ccc(Cl)c2ccccc12, the Potency is reported as inconclusive: 1.26 µM [inhibitor, full curve, poor fit].
